Literature values in PMC11006913.
The list shows a part of the results.

Tests used:
Settings in all cases: PBM; conditions not shown; double strand, one strand shown; scale: upbm affinity estimate (log intensity, higher = more binding, comparable within an allelic series)
[1] = molecular target: PITX2 L100Q (Homo sapiens) (UniProt Q99697)
[2] = molecular target: PITX2 R108H (Homo sapiens) (UniProt Q99697)
[3] = molecular target: PITX2 R130W (Homo sapiens) (UniProt Q99697)
[4] = molecular target: PITX2 T114P (Homo sapiens) (UniProt Q99697)
[5] = molecular target: PROP1 R112Q (Homo sapiens) (UniProt O75360)
[6] = molecular target: PROP1 R99Q (Homo sapiens) (UniProt O75360)

In the case of GGGCCCCC [8-mer GGGCCCCC], the binding signal [1] is listed as 7.84, the binding signal [2] is listed as 7.68 and the binding signal [3] is listed as 7.48. For the same sequence, the binding signal [4] was 7.68.
In the case of CGCAGCCC [8-mer CGCAGCCC], the binding signal [1] is given as 8.1, the binding signal [2] is given as 7.99 and the binding signal [3] is given as 7.95. For the same sequence, the binding signal [4] was 8.05.
For AGATTATA [8-mer AGATTATA], the binding signal [1] is given as 10.9, the binding signal [2] is given as 9.38 and the binding signal [3] is given as 8.73. For the same sequence, the binding signal [4] was 9.54.
In the case of ACGGGCCC [8-mer ACGGGCCC], the binding signal [1] is given as 8.15, the binding signal [2] is given as 7.96 and the binding signal [3] is given as 7.8. The binding signal [4] was 8.01, the binding signal [5] was 10.9 and the binding signal [6] was 10.9.
In the case of AGATTAAG [8-mer AGATTAAG], the binding signal [1] is listed as 11.1, the binding signal [2] is listed as 9.38 and the binding signal [3] is listed as 8.65. The binding signal [4] was 9.57.
In the case of AGATTATC [8-mer AGATTATC], the binding signal [1] is listed as 10.9, the binding signal [2] is listed as 9.21 and the binding signal [3] is listed as 8.72. The binding signal [4] was 9.39.
For CCGCGGCC [8-mer CCGCGGCC], the binding signal [1] is given as 7.93, the binding signal [2] is given as 8 and the binding signal [3] is given as 7.78. For the same sequence, the binding signal [4] was 7.96.
For GCTATAGC [8-mer GCTATAGC], the binding signal [5] is listed as 11.2 and the binding signal [6] is listed as 11.1.
For GCCCCAGC [8-mer GCCCCAGC], the binding signal [5] is listed as 10.8 and the binding signal [6] is listed as 10.9.
In the case of CCCCTCGC [8-mer CCCCTCGC], the binding signal [5] is listed as 10.9 and the binding signal [6] is listed as 10.9.
In the case of GGAGCCGA [8-mer GGAGCCGA], the binding signal [5] is listed as 10.9 and the binding signal [6] is listed as 10.9.
In the case of CCTACCCC [8-mer CCTACCCC], the binding signal [5] is listed as 10.9 and the binding signal [6] is listed as 10.9.
In the case of GCCCTCGA [8-mer GCCCTCGA], the binding signal [5] is given as 10.9 and the binding signal [6] is given as 10.9.
For ACCCCCCC [8-mer ACCCCCCC], the binding signal [5] is given as 10.8 and the binding signal [6] is given as 10.9.
In the case of GCGCCGGA [8-mer GCGCCGGA], the binding signal [5] is listed as 10.8 and the binding signal [6] is listed as 10.9.
In the case of AGCCCCGC [8-mer AGCCCCGC], the binding signal [5] is given as 10.8 and the binding signal [6] is given as 11.
In the case of CGGGTGAC [8-mer CGGGTGAC], the binding signal [5] is listed as 10.9 and the binding signal [6] is listed as 10.9.
For GGCCCACC [8-mer GGCCCACC], the binding signal [5] is given as 10.9 and the binding signal [6] is given as 10.9.
In the case of GGCAGGCC [8-mer GGCAGGCC], the binding signal [5] is given as 10.8 and the binding signal [6] is given as 10.8.
